From article PMC6538657
Results are given in words; binding and its absence hold for the method and conditions named. For some assays here: In cells and extracts the contact can be indirect. Some results given as binding are weak or reduced against the parent protein; the word gives no strength.

Amino acid sequences for entries named in this document (tags omitted). A change or cut given only in a name is not applied to a line headed by its entry.
UniProt Q15672: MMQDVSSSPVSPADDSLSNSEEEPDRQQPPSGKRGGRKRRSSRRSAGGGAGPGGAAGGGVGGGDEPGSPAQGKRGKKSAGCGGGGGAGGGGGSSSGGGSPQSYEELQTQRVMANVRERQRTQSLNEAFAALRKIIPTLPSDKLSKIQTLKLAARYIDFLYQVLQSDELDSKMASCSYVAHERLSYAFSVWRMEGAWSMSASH
UniProt P78543: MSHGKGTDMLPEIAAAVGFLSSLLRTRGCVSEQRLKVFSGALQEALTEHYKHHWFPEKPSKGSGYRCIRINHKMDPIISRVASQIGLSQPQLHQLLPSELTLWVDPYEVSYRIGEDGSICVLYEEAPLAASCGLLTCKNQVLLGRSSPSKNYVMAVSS

How the values were obtained:
Flag-Twist1 = Flag-Twist1 (UniProt Q15672); experiment: co-IP; 293TN cells transfected with Flag-Twist1 (1.0 μg) and v5-BTG2 (1.0 μg); IP with 1.0 µg of anti-Flag antibody
GST-BTG2 (human) = GST-BTG2 (human) (UniProt P78543); experiment: pull-down; GST and GST-BTG2 beads incubated with lysates of transfected 293TN cells at 4 °C overnight; immunoblot with anti-v5 or anti-Flag antibody; only the target purified
BTG2-HA (human) [1] = biological target: BTG2-HA (human) (UniProt P78543); experiment: co-IP; 293TN cells co-transfected; whole-cell lysate (1.0 mg) in E1A buffer (50 mM HEPES pH 7.5, 150 mM NaCl, 0.1% NP-40, 5 mM EDTA), IP with anti-HA antibody overnight at 4 °C, protein G beads; immunoblot
[2] = biological target: Twist1 (on the 19K-protein chip) (UniProt Q15672); experiment: peptide or protein array; 19K-protein chip analysis with BTG2^/TIS21 protein
BTG2-HA (human) [3] = biological target: BTG2-HA (human) (UniProt P78543); experiment: co-IP; 293TN cells co-transfected; 1 mg of cytoplasmic / nuclear fractions pulled down with 1 μg of anti-HA antibody overnight at 4 °C
[4] = biological target: endogenous BTG2 protein (MCF-7) (human (endogenous in MCF-7)) (UniProt P78543); experiment: co-IP; MCF-7 cells transfected with v5-Twist1; IP with anti-BTG2 antibody
v5-Twist1 = v5-Twist1 (UniProt Q15672); experiment: co-IP; 293TN cells co-transfected; lysate in E1A buffer, IP with anti-v5 antibody overnight at 4 °C, protein G beads; immunoblot; with or without MG132 treatment (Fig. 4c)
[5] = biological target: BTG2-HA (in HeLa cells) (human) (UniProt P78543); experiment: co-IP; competition assay in HeLa cells: BTG2-HA and v5-Twist1 with increasing Flag-cNOT7

Row | Substance | binding (GST-BTG2 (human)) | binding (BTG2-HA (human) [1]) | other results
1 | v5-BTG2 (from UniProt P78543 1-158) |  |  | binding (Flag-Twist1): binds
2 | 3xFlag-tagged Twist1 wild type (1-202) (from UniProt Q15672 1-202) | binds | binds | 
3 | BTG2^/TIS21 protein (probe of the 19K-protein chip) (from UniProt P78543 1-158) |  |  | binding [2]: binds
4 | 3xFlag-tagged Twist1 deletion mutant 1-121 (from UniProt Q15672 1-121) (domain or fragment) | no binding | no binding | 
5 | v5-Twist1 (in MCF-7 cells) (from UniProt Q15672 1-202) |  |  | binding [4]: binds
6 | BTG2-HA (from UniProt P78543 1-158) |  |  | binding (v5-Twist1): binds
7 | v5-Twist1 (in HeLa cells) (from UniProt Q15672 1-202) |  |  | binding [5]: binds

Continued, in another order:

Row | binding (GST-BTG2 (human)) | binding (BTG2-HA (human) [1]) | Substance | other results
8 | binds | binds | v5-Twist1 (from UniProt Q15672 1-202) | binding (BTG2-HA (human) [3]): binds
9 | no binding | no binding | 3xFlag-tagged Twist1 deletion mutant 1-161 (from UniProt Q15672 1-161) (domain or fragment) | 
